Results reported in patent US11779630B2, “Peptides and methods of using the same” (SERPIN PHARMA, LLC, priority 2020, dated 2023).

Test system: IMG microglial cells
Assay: LPS induced cytokines in IMG microglial cells, multiplex assay
Conditions: peptide 100 μg/ml, 24 hours, LPS 100 ng/ml

## V K F N K P F V F L M I E Q N T K (VKFNKPFVFLMIEQNTK; listed as Homo sapiens) [SP16]
  LPS mediated cytokines (largely TNF-alpha) in supernatant: reduced LPS mediated cytokines (largely TNF-alpha, p<0.02)
